# Source: ChEMBL document CHEMBL4888484, “Replenishing the malaria drug discovery pipeline: Screening and hit evaluation of the MMV Hit Generation Library 1 (HGL1) against asexual blood stage Plasmodium falciparum ,using a nano luciferase reporter read-out” (2022)
# Among all 150,000 compounds or so, about 540 (0.36%) showed an effect of 50% or more. The list shows a part of the results.
# Tested on: Plasmodium falciparum
# Test: Primary screen in NF54 nanoGlo assay, in single point, at 2uM, 72h; a lower Z score goes with more inhibition
# Assay type: functional, Erythrocyte
# Conditions: timepoint 72 hour
SMILES,% Inhibition [%],Z score
CCN(CC)c1nnc(-n2cccc2CN2CCN(c3ccc(F)cc3)CC2)s1,-14,1.43
c1ccc(-c2nc3nccc(-c4cccc5ccccc45)n3n2)cc1,-19,2.64
CCNC(=O)N1CCc2cc(S(=O)(=O)N3CCN(C(=O)c4ccco4)CC3)ccc21,-18,2.41
CN1CC[C@@H]2CN(C(=O)c3cc(F)c(F)cc3Cl)C[C@]2(C(=O)O)C1,0,0.09
Cc1cc(F)ccc1CC(=O)N1C[C@H]2CC[C@@H](C1)[C@H]2N(C)C,-6,0.96
COc1ncncc1NC(=O)N1CCCc2ccccc2CC1,-4,0.72
CCN1CC[C@@]2(CCC1=O)CN(c1ncnc3c1CCC3)CCN2C,-4,0.74
CC(C)CCC1CCN(C(=O)c2cn3ccncc3n2)CC1,2,-0.3
CCC(C)C(C)N(C(=O)C[C@@H]1NC(=O)NC1=O)C1CC1 (stereo partly drawn),3,-0.3
O=C(NC1CCCc2ccccc21)C1CC=CCC1 (stereo not drawn),9,-1.01
COc1cc(C)ccc1Oc1ccc(F)cc1NC(=O)N(C)C[C@H]1C[C@@H](O)C1,-13,1.44
CC(C)(C)OC(=O)NC(c1nc(C(C)(C)C)no1)C1CCCO1 (stereo not drawn),-3,0.67
CCN1CC2(CCN(C(=O)c3cnc(C)s3)CC2)CC1=O,-4,0.53
O=C(NCc1ccccc1)[C@@H]1Cc2[nH]cnc2CN1C(=O)NC1CCCCC1,-9,1.18
CC(C)(C)OC(=O)N1CC[C@H](NC(=O)CCCCN2CCOCC2)C(C)(C)C1,-9,1.38
COC(=O)CN1CCC(NC(=O)c2ccc3c(c2)C[C@H](C)O3)CC1,4,-0.58
Clc1cnn(CCN2CCC(OCc3cccnc3)CC2)c1,-1,0.09
CC[C@@H](C(=O)N1CCN(Cc2ccc(C)c(C)c2)C(=O)C1)n1cccn1,-9,1.49
Cc1[nH]c2c(CNC(=O)Cn3ccnc3)cc(F)cc2c1C,2,-0.17
CC#CC(=O)Nc1ccc(N2CCOCC2=O)c(C)c1,3,-0.35
CS(=O)(=O)N1CCC(C(=O)OCC(=O)NC2(C#N)CCCCC2)CC1,0,-0.06
CN(Cc1ccccc1)Cc1nc(CC(N)=O)nn1CC(C)(C)O,-6,0.89
Cc1nccc(O[C@H]2CCN(C(=O)c3ccsc3)C2)n1,4,-0.61
CC1=NN(c2ccccc2)C(=O)[C@H]1C(=O)c1ccc(C)cc1,29,-3.85
CC(=O)N1CCC(NC(=O)c2cc(C(C)C)[nH]n2)CC1,6,-1.02
Cc1ccc(C(=O)N2CCC(c3nc(C)no3)CC2)c(C)n1,-15,2.01
O=C1C[C@@H](C(=O)Nc2ccc(F)c(F)c2)n2nc(-c3ccc(F)cc3)cc2N1,3,-0.5

SMILES,% Inhibition [%],Z score
COc1ccc(CC[C@H](C)N2CCN(C/C=C/c3ccccc3)CC2)cc1,-2,0.46
CN(Cc1ccccc1F)C1CC[S+]([O-])CC1 (stereo not drawn),-19,3.56
Cc1ccccc1S(=O)(=O)N1C[C@@H]2C[C@H](N(C)C)CN2C(=O)[C@@H]1C,-25,2.17
COc1ccccc1Oc1nc(N2CCN(C)CC2)nc2c1CN(Cc1ccc(C(F)(F)F)cc1)CC2,-15,2.11
CC(C)(C)OC(=O)N1CC[C@@](C(=O)NOCCO)(C(F)(F)F)C1,-7,1.17
COCCN(C)Cc1ccc(CC2CCN(C(=O)c3cc4ccc(OC)cc4[nH]3)CC2)cc1,-10,1.97
CCN(CC)S(=O)(=O)NCCc1cccc(Cl)c1,-1,0.11
CC(C)COC[C@@H](O)CN1CCN(c2ccc(NC(=O)c3ccccc3)cn2)CC1,-16,2.21
Cc1nnc2n1CCN(C(=O)CCc1nc3ccccc3s1)[C@H]2C(=O)N1CCCC1,-8,1.15
O=C(COC(=O)c1ccccc1-c1nc2ccccc2s1)Nc1ccc2c(c1)OCO2,-1,0.2
Nc1nnnn1CC(=O)NCc1noc(C2CCC2)n1,4,-0.78
Cc1noc([C@H](C)Nc2ccc3c(c2)OCCCO3)n1,-8,0.76
CCOC1CCCN(C(=O)NC(C)C2CC2)C1 (stereo not drawn),-4,0.45
COc1ccc(NC(=O)CNC(=O)c2cn(-c3ccccc3OC)c(=O)c3ccccc23)c(OC)c1,7,-0.8
COCC(=O)N1C[C@@H]2CCN(Cc3cccc(F)c3F)C[C@]2(CO)C1,3,-0.5
CN(CC1(CO)CCC1)C(=O)Cn1cccnc1=O,2,-0.31
O=C(NCC1CCCO1)OCC1CCCO1 (stereo not drawn),-2,0.23
CCC(=O)N1CCc2cc(N3C[C@@H](C(=O)Nc4cc(Cl)ccc4OC)CC3=O)ccc21,-4,0.7
FC1(F)CCC(Cn2ccnn2)CC1,10,-2.01
COc1cccc(CNC(=O)CCc2c(C)nn(-c3cc(N4CCOCC4)ncn3)c2C)c1,-5,1.06
CCc1onc(C)c1C(=O)N(C)C[C@H]1CCCCO1,-9,1.29
COc1ccccc1[C@@H]1C=C(C(=O)O)Nc2c(C(=O)Nc3cccc(C)c3)cnn21,5,-0.57
CCc1ccsc1C(=O)N[C@H](C)CC(=O)O,-5,0.78
CCONC(=O)NCCc1ncc(C)s1,-4,0.64
Cc1noc(C)c1S(=O)(=O)N(C)C1CCCCCC1,-9,1.29
COCc1cc(C)n(CC#N)c(=O)c1C#N,38,-1.29
Cc1c(Cl)cccc1S(=O)(=O)N1CC[C@H](n2cc(-c3ccccc3)nn2)C1,-12,1.34
